Data as given in US12043670B2, “Anti-BCMA antibody-drug conjugates and methods of use” (Eisai R&D Management Co., Ltd., priority 2020, dated 2024).

Assay: ThermoFluor thermostability (Tm)
Type: physicochemical
Conditions: Fab fragment; heavy chain clone paired with light chain AB200-(2Vk31)

Molecule	Tm [°C]
AB200-(2Vk31)_R2-VH-v20 (antibody) heavy: QVQLVQSGAEVKKPGSSVKVSCKASGGTFSNYWIHWVRQAPGQGLEWMGGTYRSHSDTNYNQKFKSRVTITADKSTSTAYMELSSLRSEDTAVYYCARGAIYHGYDVIENWGQGTLVTVSSASTKGPSVFPLAPSSKSTSGGTAALGCLVKDYFPEPVTVSWNSGALTSGVHTFPAVLQSSGLYSLSSVVTVPSSSLGTQTYICNVNHKPSNTKVDKKVEPKSC light: DIQMTQSPSSLSASVGDRVTITCRASQSISSYLNWYQQKPGKAPKLLIYATSNLQIGVPSRFSGSGSGTDFTLTISSLQPEDFATYYCQQFRRLPWTFGQGTKLEIKRTVAAPSVFIFPPSDEQLKSGTASVVCLLNNFYPREAKVQWKVDNALQSGNSQESVTEQDSKDSTYSLSSTLTLSKADYEKHKVYACEVTHQGLSSPVTKSFNRGEC	81.245
AB200-(2Vk31)_R2-VH-v25 (antibody) heavy: QVQLVQSGAEVKKPGSSVKVSCKASGGTFSNYWIHWVRQAPGQGLEWMGATYRSHSTTNYNQKFKSRVTITADKSTSTAYMELSSLRSEDTAVYYCARGAIYHGFDVIDNWGQGTLVTVSSASTKGPSVFPLAPSSKSTSGGTAALGCLVKDYFPEPVTVSWNSGALTSGVHTFPAVLQSSGLYSLSSVVTVPSSSLGTQTYICNVNHKPSNTKVDKKVEPKSC light: DIQMTQSPSSLSASVGDRVTITCRASQSISSYLNWYQQKPGKAPKLLIYATSNLQIGVPSRFSGSGSGTDFTLTISSLQPEDFATYYCQQFRRLPWTFGQGTKLEIKRTVAAPSVFIFPPSDEQLKSGTASVVCLLNNFYPREAKVQWKVDNALQSGNSQESVTEQDSKDSTYSLSSTLTLSKADYEKHKVYACEVTHQGLSSPVTKSFNRGEC	83.328
AB200-(2Vk31)_R2-VH-v3 (antibody) heavy: QVQLVQSGAEVKKPGSSVKVSCKASGGTFTNYWIHWVRQAPGQGLEWMGGTYRSHSTTYYNQKFKSRVTITADKSTSTAYMELSSLRSEDTAVYYCARGAVYHGYDVIDNWGQGTLVTVSSASTKGPSVFPLAPSSKSTSGGTAALGCLVKDYFPEPVTVSWNSGALTSGVHTFPAVLQSSGLYSLSSVVTVPSSSLGTQTYICNVNHKPSNTKVDKKVEPKSC light: DIQMTQSPSSLSASVGDRVTITCRASQSISSYLNWYQQKPGKAPKLLIYATSNLQIGVPSRFSGSGSGTDFTLTISSLQPEDFATYYCQQFRRLPWTFGQGTKLEIKRTVAAPSVFIFPPSDEQLKSGTASVVCLLNNFYPREAKVQWKVDNALQSGNSQESVTEQDSKDSTYSLSSTLTLSKADYEKHKVYACEVTHQGLSSPVTKSFNRGEC	85.949
AB200-(2Vk31)_R2-VH-v47 (antibody) heavy: QVQLVQSGAEVKKPGSSVKVSCKASGGTYSNYWIHWVRQAPGQGLEWMGATYRIHSTTYYNEKFKSRVTITADKSTSTAYMELSSLRSEDTAVYYCARGAIFHGYDVIDNWGQGTLVTVSSASTKGPSVFPLAPSSKSTSGGTAALGCLVKDYFPEPVTVSWNSGALTSGVHTFPAVLQSSGLYSLSSVVTVPSSSLGTQTYICNVNHKPSNTKVDKKVEPKSC light: DIQMTQSPSSLSASVGDRVTITCRASQSISSYLNWYQQKPGKAPKLLIYATSNLQIGVPSRFSGSGSGTDFTLTISSLQPEDFATYYCQQFRRLPWTFGQGTKLEIKRTVAAPSVFIFPPSDEQLKSGTASVVCLLNNFYPREAKVQWKVDNALQSGNSQESVTEQDSKDSTYSLSSTLTLSKADYEKHKVYACEVTHQGLSSPVTKSFNRGEC	82.826
AB200-(2Vk31)_R2-VH-v50 (antibody) heavy: QVQLVQSGAEVKKPGSSVKVSCKASGGTYSNYWIHWVRQAPGQGLEWMGGTYRIHSDTNYNQKFKSRVTITADKSTSTAYMELSSLRSEDTAVYYCARGAIYHGYDVIENWGQGTLVTVSSASTKGPSVFPLAPSSKSTSGGTAALGCLVKDYFPEPVTVSWNSGALTSGVHTFPAVLQSSGLYSLSSVVTVPSSSLGTQTYICNVNHKPSNTKVDKKVEPKSC light: DIQMTQSPSSLSASVGDRVTITCRASQSISSYLNWYQQKPGKAPKLLIYATSNLQIGVPSRFSGSGSGTDFTLTISSLQPEDFATYYCQQFRRLPWTFGQGTKLEIKRTVAAPSVFIFPPSDEQLKSGTASVVCLLNNFYPREAKVQWKVDNALQSGNSQESVTEQDSKDSTYSLSSTLTLSKADYEKHKVYACEVTHQGLSSPVTKSFNRGEC	79.146
AB200-(2Vk31)_R2-VH-v33 (antibody) heavy: QVQLVQSGAEVKKPGSSVKVSCKASGGTFSNYWIHWVRQAPGQGLEWMGATYRSHSDTNYNEKFKSRVTITADKSTSTAYMELSSLRSEDTAVYYCARGAIYHGYDVIENWGQGTLVTVSSASTKGPSVFPLAPSSKSTSGGTAALGCLVKDYFPEPVTVSWNSGALTSGVHTFPAVLQSSGLYSLSSVVTVPSSSLGTQTYICNVNHKPSNTKVDKKVEPKSC light: DIQMTQSPSSLSASVGDRVTITCRASQSISSYLNWYQQKPGKAPKLLIYATSNLQIGVPSRFSGSGSGTDFTLTISSLQPEDFATYYCQQFRRLPWTFGQGTKLEIKRTVAAPSVFIFPPSDEQLKSGTASVVCLLNNFYPREAKVQWKVDNALQSGNSQESVTEQDSKDSTYSLSSTLTLSKADYEKHKVYACEVTHQGLSSPVTKSFNRGEC	81.852
AB200-(2Vk31)_R2-VH-v27 (antibody) heavy: QVQLVQSGAEVKKPGSSVKVSCKASGGTFSNYWIHWVRQAPGQGLEWMGATYRSQSTTYYNQKFKSRVTITADKSTSTAYMELSSLRSEDTAVYYCARGAVYHGYDVIDNWGQGTLVTVSSASTKGPSVFPLAPSSKSTSGGTAALGCLVKDYFPEPVTVSWNSGALTSGVHTFPAVLQSSGLYSLSSVVTVPSSSLGTQTYICNVNHKPSNTKVDKKVEPKSC light: DIQMTQSPSSLSASVGDRVTITCRASQSISSYLNWYQQKPGKAPKLLIYATSNLQIGVPSRFSGSGSGTDFTLTISSLQPEDFATYYCQQFRRLPWTFGQGTKLEIKRTVAAPSVFIFPPSDEQLKSGTASVVCLLNNFYPREAKVQWKVDNALQSGNSQESVTEQDSKDSTYSLSSTLTLSKADYEKHKVYACEVTHQGLSSPVTKSFNRGEC	86.016
AB200-(2Vk31)_R2-VH-v34 (antibody) heavy: QVQLVQSGAEVKKPGSSVKVSCKASGGTFSNYWIHWVRQAPGQGLEWMGATYRSQSDTYYAQKFKSRVTITADKSTSTAYMELSSLRSEDTAVYYCARGAIYHGYDVIENWGQGTLVTVSSASTKGPSVFPLAPSSKSTSGGTAALGCLVKDYFPEPVTVSWNSGALTSGVHTFPAVLQSSGLYSLSSVVTVPSSSLGTQTYICNVNHKPSNTKVDKKVEPKSC light: DIQMTQSPSSLSASVGDRVTITCRASQSISSYLNWYQQKPGKAPKLLIYATSNLQIGVPSRFSGSGSGTDFTLTISSLQPEDFATYYCQQFRRLPWTFGQGTKLEIKRTVAAPSVFIFPPSDEQLKSGTASVVCLLNNFYPREAKVQWKVDNALQSGNSQESVTEQDSKDSTYSLSSTLTLSKADYEKHKVYACEVTHQGLSSPVTKSFNRGEC	81.638
AB200-(2Vk31)_R2-VH-v5 (antibody) heavy: QVQLVQSGAEVKKPGSSVKVSCKASGGTFTNYWIHWVRQAPGQGLEWMGGTYRSHSDTYYNEKFKSRVTITADKSTSTAYMELSSLRSEDTAVYYCARGAIFHGYDVIDNWGQGTLVTVSSASTKGPSVFPLAPSSKSTSGGTAALGCLVKDYFPEPVTVSWNSGALTSGVHTFPAVLQSSGLYSLSSVVTVPSSSLGTQTYICNVNHKPSNTKVDKKVEPKSC light: DIQMTQSPSSLSASVGDRVTITCRASQSISSYLNWYQQKPGKAPKLLIYATSNLQIGVPSRFSGSGSGTDFTLTISSLQPEDFATYYCQQFRRLPWTFGQGTKLEIKRTVAAPSVFIFPPSDEQLKSGTASVVCLLNNFYPREAKVQWKVDNALQSGNSQESVTEQDSKDSTYSLSSTLTLSKADYEKHKVYACEVTHQGLSSPVTKSFNRGEC	83.838
AB200-(2Vk31)_R2-VH-v29 (antibody) heavy: QVQLVQSGAEVKKPGSSVKVSCKASGGTFSNYWIHWVRQAPGQGLEWMGATYRSHSTTYYNEKFKSRVTITADKSTSTAYMELSSLRSEDTAVYYCARGAIYHGFDVIDNWGQGTLVTVSSASTKGPSVFPLAPSSKSTSGGTAALGCLVKDYFPEPVTVSWNSGALTSGVHTFPAVLQSSGLYSLSSVVTVPSSSLGTQTYICNVNHKPSNTKVDKKVEPKSC light: DIQMTQSPSSLSASVGDRVTITCRASQSISSYLNWYQQKPGKAPKLLIYATSNLQIGVPSRFSGSGSGTDFTLTISSLQPEDFATYYCQQFRRLPWTFGQGTKLEIKRTVAAPSVFIFPPSDEQLKSGTASVVCLLNNFYPREAKVQWKVDNALQSGNSQESVTEQDSKDSTYSLSSTLTLSKADYEKHKVYACEVTHQGLSSPVTKSFNRGEC	85.764
AB200-(2Vk31)_R2-VH-v42 (antibody) heavy: QVQLVQSGAEVKKPGSSVKVSCKASGGTFTNYWIHWVRQAPGQGLEWMGGTYRIHSDTYYNQKYKSRVTITADKSTSTAYMELSSLRSEDTAVYYCARGAIFHGYDVIDNWGQGTLVTVSSASTKGPSVFPLAPSSKSTSGGTAALGCLVKDYFPEPVTVSWNSGALTSGVHTFPAVLQSSGLYSLSSVVTVPSSSLGTQTYICNVNHKPSNTKVDKKVEPKSC light: DIQMTQSPSSLSASVGDRVTITCRASQSISSYLNWYQQKPGKAPKLLIYATSNLQIGVPSRFSGSGSGTDFTLTISSLQPEDFATYYCQQFRRLPWTFGQGTKLEIKRTVAAPSVFIFPPSDEQLKSGTASVVCLLNNFYPREAKVQWKVDNALQSGNSQESVTEQDSKDSTYSLSSTLTLSKADYEKHKVYACEVTHQGLSSPVTKSFNRGEC	81.487
AB200-(2Vk31)_R2-VH-v21 (antibody) heavy: QVQLVQSGAEVKKPGSSVKVSCKASGGTFSNYWIHWVRQAPGQGLEWMGGTYRSHSDTYYAQKFKSRVTITADKSTSTAYMELSSLRSEDTAVYYCARGAIFHGYDVIDNWGQGTLVTVSSASTKGPSVFPLAPSSKSTSGGTAALGCLVKDYFPEPVTVSWNSGALTSGVHTFPAVLQSSGLYSLSSVVTVPSSSLGTQTYICNVNHKPSNTKVDKKVEPKSC light: DIQMTQSPSSLSASVGDRVTITCRASQSISSYLNWYQQKPGKAPKLLIYATSNLQIGVPSRFSGSGSGTDFTLTISSLQPEDFATYYCQQFRRLPWTFGQGTKLEIKRTVAAPSVFIFPPSDEQLKSGTASVVCLLNNFYPREAKVQWKVDNALQSGNSQESVTEQDSKDSTYSLSSTLTLSKADYEKHKVYACEVTHQGLSSPVTKSFNRGEC	81.367
